Among all 220,000 compounds or so, about 5,700 (2.6%) were called active. This list was built around the results that the source calls inconclusive (neither active nor inactive); the mix of calls is not that of the screen. Calls follow the shape of the dose curve; as a rule, active = well fitted inhibition curve with a large enough effect; inconclusive = small, poorly fitted or top-dose-only effect; inactive = no such curve, though single readings can be large or run the other way. A potency beside an inconclusive call is a rough fit, not a confirmed value.
target: Lysine-specific demethylase 5B (Homo sapiens) (UniProt Q9UGL1); assay: Primary screen for KDM5B Histone Demethylases FDH-coupled qHTS; settings: FDH-coupled NADH fluorescence (FDH is formaldehyde dehydrogenase); activity change, negative = inhibition: at 57.7 µM (top of the series) unless noted; also: nearly all actives have a fitted effect of over 70% in size; as to activity change, negative = inhibition: 0% is about no effect
Chain of UniProt Q9UGL1 (Q9UGL1 whole entry, looked up): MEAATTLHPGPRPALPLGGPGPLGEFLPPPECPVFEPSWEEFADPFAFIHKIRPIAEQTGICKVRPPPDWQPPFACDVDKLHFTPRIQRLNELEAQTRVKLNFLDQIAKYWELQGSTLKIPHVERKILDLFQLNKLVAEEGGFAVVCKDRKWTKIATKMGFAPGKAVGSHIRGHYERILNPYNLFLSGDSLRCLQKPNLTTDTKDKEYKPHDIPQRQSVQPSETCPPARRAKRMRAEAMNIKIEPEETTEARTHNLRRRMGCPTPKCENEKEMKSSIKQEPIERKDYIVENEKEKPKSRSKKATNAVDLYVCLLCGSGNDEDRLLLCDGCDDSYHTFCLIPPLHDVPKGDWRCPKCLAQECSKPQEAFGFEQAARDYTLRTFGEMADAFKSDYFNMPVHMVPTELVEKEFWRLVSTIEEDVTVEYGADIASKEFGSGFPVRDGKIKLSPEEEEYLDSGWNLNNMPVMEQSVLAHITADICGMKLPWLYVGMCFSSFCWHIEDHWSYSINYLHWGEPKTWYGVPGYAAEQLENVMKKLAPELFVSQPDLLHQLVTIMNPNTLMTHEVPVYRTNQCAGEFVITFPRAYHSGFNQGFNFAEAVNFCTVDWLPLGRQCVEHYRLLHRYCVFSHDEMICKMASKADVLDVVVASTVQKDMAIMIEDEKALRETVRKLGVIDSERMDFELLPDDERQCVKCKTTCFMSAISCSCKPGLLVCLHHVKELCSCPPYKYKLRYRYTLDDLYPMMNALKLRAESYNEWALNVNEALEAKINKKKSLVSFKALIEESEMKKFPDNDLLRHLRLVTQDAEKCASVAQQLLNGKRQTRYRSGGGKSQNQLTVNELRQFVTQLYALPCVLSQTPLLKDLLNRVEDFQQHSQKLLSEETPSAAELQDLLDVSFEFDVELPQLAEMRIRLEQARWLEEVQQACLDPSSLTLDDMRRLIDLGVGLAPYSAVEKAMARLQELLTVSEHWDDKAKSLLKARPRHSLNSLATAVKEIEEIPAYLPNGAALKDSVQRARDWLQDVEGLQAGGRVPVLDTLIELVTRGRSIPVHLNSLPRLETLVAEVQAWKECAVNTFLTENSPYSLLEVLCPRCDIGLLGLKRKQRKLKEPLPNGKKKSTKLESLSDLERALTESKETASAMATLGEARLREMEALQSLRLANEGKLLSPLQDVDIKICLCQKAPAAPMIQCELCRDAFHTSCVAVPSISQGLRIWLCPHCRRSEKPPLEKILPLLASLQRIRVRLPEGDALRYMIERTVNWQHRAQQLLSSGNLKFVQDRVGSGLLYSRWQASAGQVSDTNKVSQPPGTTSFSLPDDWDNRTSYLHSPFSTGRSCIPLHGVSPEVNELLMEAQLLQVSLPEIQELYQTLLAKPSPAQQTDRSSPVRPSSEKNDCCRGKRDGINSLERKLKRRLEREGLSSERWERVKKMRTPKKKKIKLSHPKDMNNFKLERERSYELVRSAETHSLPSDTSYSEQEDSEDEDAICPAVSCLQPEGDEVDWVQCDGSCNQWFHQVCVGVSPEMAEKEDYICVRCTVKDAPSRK
Method in brief: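 qHTS format, multiple compound concentrations. Buffer 50 mM HEPES pH 7.5/0.01% Tween-20; 200 nM KDM5BΔAP final; 10 min compound preincubation; substrate-mix levels 12.5 µM peptide, 25 µM α-KG, 0.25 mM NAD⁺; 30 min RT; ΔRFU.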
Potency is read from the fitted curve at half-maximal effect; tags tell the direction and shape of the fitted curve.

SMILES | Potency | activity change, negative = inhibition
O=C(Nc1nccs1)c1occc1-c1ccccc1 | inactive | –
CN(C)C(CNC(=S)NCCc1ccccc1)c1cccs1 (configuration not stated) | inactive | –
CCCc1nc(NCCO)c(C#N)c2c1CCCC2 | inconclusive: 22.4 µM [inhibitor, single point] | –
CCN(Cc1ccc(N(C)C)cc1)C(C)C(=O)Nc1ccc(S(=O)(=O)N2CCCC2)cc1 (configuration not stated) | inconclusive: 39.8 µM [inhibitor, single point] | –
O=C1Nc2ccccc2CN(CC2CCCCC2)C12CCNC2 (configuration not stated) | inconclusive: 79.4 µM [inhibitor, partial curve] | –
CC(NC(=S)NCc1ccc(F)cc1)c1ccncc1 (configuration not stated) | inactive | –
CSc1cccc(Nc2cc(C(=O)NCCCN(C)c3ccccc3)c3ccccc3n2)c1 | inconclusive: 31.6 µM [inhibitor, partial curve, poor fit] | –
c1ccc(-c2nc(C3CCOCC3)no2)c(OC2CCN(C3CCCC3)C2)c1 (configuration not stated) | inconclusive: 17.8 µM [inhibitor, partial curve, poor fit] | –
COc1ccc(OC)c(CNC(=O)c2cc3c(s2)-c2c(C)cccc2OC3)c1 | inconclusive: 1.78 µM [inhibitor, partial curve, poor fit] | –
COc1ccc(/C=C/C(=O)Nc2nc3n(n2)C(c2ccc(F)cc2)C=C(c2ccccc2)N3)cc1 (configuration not stated) | inconclusive: 8.91 µM [inhibitor, partial curve, poor fit] | –
Cc1cccc(OCCC(=O)NO)c1 | inconclusive: 8.91 µM [inhibitor, partial curve, poor fit] | –
O=C1CCC2(CNC(=O)c3cccnc3)CCCC=C2N1 (configuration not stated) | inconclusive: 17.8 µM [inhibitor, partial curve, poor fit] | –
CC(=O)c1sc(-c2ccc(F)cc2)nc1C | inactive | –
Cc1ccccc1C(=O)N1CCC(c2nn(-c3ccc(Cl)cc3)c(=O)[nH]2)CC1 | inactive | –
Cc1ccc2c(c1)C1CN(C)CCC1N2Sc1ccccc1[N+](=O)[O-] (configuration not stated) | inactive | –
CCc1cccc(-n2c(=O)c3cccnc3n2CC(=O)Nc2ccc(F)c(C)c2)c1 | inconclusive: 31.6 µM [inhibitor, partial curve, poor fit] | –
COc1cccc(C(=O)Nc2c(C(=O)N3CCN(c4ccc(F)cc4)CC3)oc3ccccc23)c1 | inconclusive: 25.1 µM [inhibitor, partial curve, poor fit] | –
CCc1ccc(CNC(=O)c2c(C)oc3ncnc(N4CCOCC4)c23)cc1 | inactive | –
Cc1noc(C)c1-c1cc2cc(CO)oc2c(NCc2ccc3c(c2)OCO3)n1 | inconclusive: 35.5 µM [inhibitor, single point] | –
COCCNC(=O)[C@H]1C[C@H](Oc2cccnc2)CN1C(=O)c1cccs1 | inconclusive: 2.24 µM [inhibitor, partial curve, poor fit] | –
CNC(=O)N1CCC(C2CCN(Cc3ccncc3)C2)CC1 (configuration not stated) | inconclusive: 35.5 µM [inhibitor, partial curve, poor fit] | –

SMILES | Potency | activity change, negative = inhibition
Cn1cc(CNc2ccc(-c3nc(CCCc4ccccc4)no3)cn2)cn1 | active: 31.6 µM | –
COc1ccc(Nc2nc(NCc3ccc4c(c3)OCO4)nc3nccnc23)cc1 | inactive | –
CC(C)NC(=O)c1ccccc1-c1ncc(-c2ccc(F)cc2)o1 | inconclusive: 25.1 µM [inhibitor, partial curve, poor fit] | –
CCOc1cc(/C=C(\C#N)C(=O)NCC2CCCO2)ccc1O (configuration not stated) | inconclusive: 28.2 µM [inhibitor, partial curve, poor fit] | –
Cc1ccccc1OCc1ccc(-c2nc(C#N)c(NCc3cccnc3)o2)o1 | inconclusive: 20 µM [inhibitor, partial curve, poor fit] | –
CC(C)c1ccc(NC(=S)NC2CCSc3ccccc32)cc1 (configuration not stated) | inactive | –
Cc1cc(Cl)ccc1NS(=O)(=O)c1cc(-c2c(C)nn3c2NC(=O)CCC3=O)ccc1C | inconclusive: 39.8 µM [inhibitor, single point] | –
COc1ccccc1N1C(=O)Cc2ccccc2C1=O | inconclusive: 39.8 µM [inhibitor, single point] | –
c1ccc(-c2nnc3ccc(NCc4cccs4)nn23)nc1 | inconclusive: 56.2 µM [inhibitor, single point] | –
COc1ccc(OC)c(CNC(=O)C(C)n2c(C)c3cnn(-c4ccccc4)c(=O)c3c2C)c1 (configuration not stated) | – | inconclusive: -40.2% [inhibitor]
COc1ccc(-c2noc(-c3cccn3CC(=O)N(C)c3ccccc3)n2)cc1F | inconclusive: 28.2 µM [inhibitor, single point] | –
CC(NC(=O)C1(c2ccc(NS(C)(=O)=O)cc2)CCCCC1)c1ccccc1 (configuration not stated) | inactive | –
Cn1c(C(=O)Nc2cccc(C(F)(F)F)c2)cc2c(=O)n3ccccc3nc21 | inconclusive: 31.6 µM [inhibitor, partial curve, poor fit] | –
CC(C)C[C@@H]1N[C@H](C(=O)NCCCn2ccnc2)Cc2c[nH]c3cccc1c23 | inconclusive: 35.5 µM [inhibitor, single point] | –
CCNC(=O)NC(=O)C(C)N(C)Cc1ccc(C(F)(F)F)cc1 (configuration not stated) | inactive | –
O=C1c2c(nc(CNCc3ccc4c(c3)OCO4)n2Cc2ccccc2)NCCN1CCOc1ccccc1 | inconclusive: 39.8 µM [inhibitor, single point] | –
CCOc1ccc(S(=O)(=O)Nc2ccccc2)cc1-c1nc2c(C(C)(C)C)nn(C)c2c(=O)[nH]1 | inconclusive: 39.8 µM [inhibitor, single point] | –
Oc1ccccc1-c1nc(/C=C/c2ccccc2Cl)nn1-c1ccccc1 | inconclusive: 39.8 µM [inhibitor, single point] | –
COC(=O)[C@H](C(C)C)N(Cc1cn(CC2CCCCC2)nn1)S(=O)(=O)c1ccc(F)cc1Br | inconclusive: 10 µM [inhibitor, partial curve, poor fit] | –
O=C(NC1CCCC1)[C@H]1C[C@@H](O)[C@H](O)[C@@H]2N=C(Nc3ccc4c(c3)OCO4)S[C@@H]21 | inactive | –
CN(C)c1ccc(CN[C@H]2C[C@H]3C(=O)NC[C@@H](CCC(=O)NCc4ccc(F)cc4)N3C2)cc1 | inconclusive: 39.8 µM [inhibitor, partial curve, poor fit] | –

Source: PubChem BioAssay AID1347165 (National Center for Advancing Translational Sciences (NCATS), 2019)
